# In the BET-seq Pho4 binding data (Le et al. 2018):
# Some of the results follow. The energies were worked out here from pooled read counts, against the library average; single values are noisy.
# Molecular target: T1, Pho4 (S. cerevisiae) (UniProt P07270)
# T1 sequence: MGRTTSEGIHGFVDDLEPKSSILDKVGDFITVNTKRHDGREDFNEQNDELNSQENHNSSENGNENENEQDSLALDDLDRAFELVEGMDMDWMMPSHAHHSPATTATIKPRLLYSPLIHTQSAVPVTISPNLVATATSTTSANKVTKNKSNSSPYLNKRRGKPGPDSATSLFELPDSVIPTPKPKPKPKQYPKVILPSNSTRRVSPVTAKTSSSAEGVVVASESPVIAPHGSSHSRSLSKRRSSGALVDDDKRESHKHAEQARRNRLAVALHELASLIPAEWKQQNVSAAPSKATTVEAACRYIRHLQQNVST
# Assay: relative binding free energy (BET-seq); higher = weaker binding
# Settings: reference: library average
row,Sequence,relative binding free energy [kcal/mol]
1,GGTGTCACGTGGTTAC,0
2,TTTGGCACGTGGAGGA,-0.04
3,GGATCCACGTGTGGGG,0.11
4,CGTGCCACGTGGTGTA,-0.21
5,ATGGCCACGTGAGGCT,0.15
6,CGTGGCACGTGGGTCG,-0.32
7,TCATGCACGTGGGATG,-0.11
8,TGGGTCACGTGAGTCA,0.33
9,GGGTACACGTGTATGG,0.18
10,CAAGGCACGTGTGAGT,-0.05
11,CTGAGCACGTGTGAAG,0.1
12,TTTTACACGTGTCGCG,0.07
13,GATGGCACGTGAGGTG,0.2
14,TTTGTCACGTGTCGGT,0.09
15,TTGTCCACGTGTAGGT,-0.07
16,ATATACACGTGCAGTG,0.06
17,GGAGACACGTGGTATG,-0.14
18,ATTTGCACGTGGGTAC,-0.08
19,ATTAGCACGTGTGACG,0.06
20,AGGAGCACGTGATTGT,0.12
21,ATTTTCACGTGTAGCG,0.22
22,TGTGACACGTGTTCAA,-0.02
23,GGTACCACGTGGCGGG,-0.16
24,AGGGACACGTGGGTCG,-0.09
25,GTATTCACGTGGTAAT,0.29

row,Sequence,relative binding free energy [kcal/mol]
1,TTGATCACGTGATAGA,0.28
2,TTGCGCACGTGATAGG,0.03
3,TTGGACACGTGGGTGT,-0.1
4,ATTATCACGTGCTGCG,0.11
5,TTTTTCACGTGGGGAA,0.2
6,GGGGGCACGTGGAATC,0.05
7,TTAAGCACGTGGGACG,-0.18
8,TAATACACGTGTTGTA,-0.18
9,CTGTCCACGTGTTGGT,0.01
10,AGGCGCACGTGAGCGG,-0.05
11,ACATGCACGTGTTGGT,-0.12
12,CGGATCACGTGGGGGG,-0.04
13,GGAAGCACGTGGATTG,-0.04
14,TTTACCACGTGTGGGG,0.12
15,TTCCTCACGTGGGGGG,-0.05
16,CGTAGCACGTGTAGTT,-0.02
17,GATTGCACGTGAGATT,0.19
18,TAGCTCACGTGTTTTT,0.12
19,AGGGGCACGTGGCGCA,-0.29
20,AAGTTCACGTGTAAGA,0.39
21,TAATACACGTGCTGTT,-0.08
22,TATAACACGTGCTTAT,0.06
23,TAGGCCACGTGGGGGG,-0.17
24,CTATACACGTGTTAGG,0.12
25,CGAGGCACGTGTTGGT,-0.09

row,Sequence,relative binding free energy [kcal/mol]
1,GTTTGCACGTGATCGG,0.09
2,AAAGTCACGTGGTATG,-0.06
3,ATTAGCACGTGAGTGT,0.15
4,GAAAACACGTGTGGTG,-0.08
5,TTTTGCACGTGCGGCG,0.06
6,TCGTTCACGTGTAATG,0.3
7,TTTAACACGTGGGATA,-0.04
8,TAGTGCACGTGGTCAG,-0.22
9,GTCGCCACGTGATGTT,0.27
10,ATGTTCACGTGCTTTA,0.26
11,GTTTACACGTGGCTCG,-0.01
12,GCAGTCACGTGTGTCG,0.24
13,GTGGTCACGTGCTCTT,0.13
14,GAGAGCACGTGAATTT,0.34
15,AAGTTCACGTGACGGG,0.46
16,TATATCACGTGGTTAT,0.01
17,GAGTGCACGTGTGAGA,0.26
18,AACTTCACGTGTAGTG,0.22
19,TGCAGCACGTGAATGG,0.13
20,GGACGCACGTGTATGG,0.02
21,AGATTCACGTGCGAGG,0.22
22,CTGTGCACGTGTGTGG,0.04
23,TTTGGCACGTGAGTAC,0.02
24,GTGTTCACGTGCACGG,0.21
25,ACTTGCACGTGATAGG,0.13

row,Sequence,relative binding free energy [kcal/mol]
1,CGTCTCACGTGTTGAG,0.31
2,CTATACACGTGTGTGT,0.14
3,TATTTCACGTGCGGAT,0.21
4,TCATGCACGTGAGGTG,0.03
5,AATGGCACGTGGGGGA,-0.27
6,CTGGTCACGTGATGTA,0.21
7,GATTGCACGTGTTTAC,0.13
8,CTTTTCACGTGGGTTG,0.25
9,GAAGGCACGTGAAAGT,0.14
10,CGGTGCACGTGTCTGG,0.01
11,GTTAGCACGTGACTTG,0
12,ATAGTCACGTGAGTAA,0.24
13,TTCGTCACGTGAGATT,0.43
14,TATTCCACGTGTATTA,0.07
15,GGGGGCACGTGAGGAG,0.1
16,CAGGTCACGTGGGTGG,0.02
17,ACATACACGTGTTGTT,0.03
18,GAGGTCACGTGTTGCA,0.3
19,TTGCTCACGTGATTGT,0.38
20,GGTGGCACGTGGACGA,-0.07
21,GGGTACACGTGGCCGG,-0.01
22,TTGGCCACGTGCGGGT,-0.19
23,TCATGCACGTGGGCTG,-0.09
24,TGTAGCACGTGAGCTT,0.01
25,CGTGGCACGTGTTCTT,0.03

row,Sequence,relative binding free energy [kcal/mol]
1,AAGTTCACGTGGGTTA,0.18
2,TAGGACACGTGGGGCT,-0.12
3,TATGGCACGTGGCGAG,-0.19
4,AGTACCACGTGGGATG,-0.22
5,ATGCTCACGTGTTGGC,0.36
6,GATAGCACGTGTATAT,0.11
7,GGTCACACGTGTCGGT,0.22
8,ATTAGCACGTGTTAGT,-0.05
9,TTTTACACGTGGAGTC,0.13
10,TCGTTCACGTGTACGG,0.27
11,TTGTACACGTGAGGCG,0.26
12,GTGGACACGTGTAGTA,-0.04
13,TACGGCACGTGTGTAA,-0.04
14,TTTATCACGTGTCGGA,0.2
15,ACATTCACGTGGGGTG,0.08
16,GTGGACACGTGGTAAA,0.11
17,GGAGTCACGTGGTTTG,0.19
18,GTAGGCACGTGATCTG,-0.08
19,AAGTGCACGTGTTATT,0.04
20,TGTTCCACGTGAGAGT,0.31
21,GTGCTCACGTGGAGGG,0.18
22,TGATCCACGTGAGGAT,0.49
23,TGAGCCACGTGGGGAT,-0.14
24,GCCTGCACGTGTGGTT,0.1
25,TTTAGCACGTGGCGTA,-0.05

row,Sequence,relative binding free energy [kcal/mol]
1,ATGGGCACGTGTTTTC,0.05
2,ATGGGCACGTGTGTAG,-0.09
3,TTTGGCACGTGGCTTT,-0.19
4,CGGTTCACGTGTTTTC,0.3
5,TTTCGCACGTGCGTGT,0.01
6,AAGGTCACGTGTCGTA,0.12
7,AGAGGCACGTGGGGCC,-0.31
8,GTTTGCACGTGGCGTA,-0.06
9,GTTCGCACGTGATTAG,0.19
10,CTTGTCACGTGCAGTT,0.11
11,TGGCTCACGTGGATGC,0.34
12,TGTTCCACGTGAGTTT,0.32
13,ATTTACACGTGTCGTT,-0.01
14,ATACTCACGTGGGGTG,0
15,GAAGTCACGTGTTGAG,0.16
16,ACGGGCACGTGTTGAT,-0.11
17,CATAGCACGTGAGTGT,0.31
18,TTTGACACGTGAAAGT,0.21
19,AATCGCACGTGTGGGT,-0.05
20,CTGGGCACGTGTTTTG,-0.08
21,GTATTCACGTGCAGGT,0.02
